1 substance from paper PMC8034648, “Oligomeric complexes formed by Redβ single strand annealing protein in its different DNA bound states” can be followed below.

Entries with a single value are a further part of the results.

Experiment [1] concerns the target Redβ single strand annealing protein from bacteriophage λ (bacteriophage λ) (UniProt P03698). The experiment can be described thus: AUC; sedimentation velocity, Redβ with dT38 ssDNA, complex purified by gel filtration; PBS, 20°C, 20 000 rpm; 8.3, 16.6 and 34 μM; A280 and FI optics; c(s) model (Table 2) and g(s*) model; n assumes one copy of dT38. In general terms: Size exclusion chromatography separates by hydrodynamic size, large species first.

The target is the same in experiment [2]. The experiment can be described thus: AUC; sedimentation velocity, Redβ with dT38:dA38 annealed duplex, complex purified by gel filtration; PBS, 20°C, 20 000 rpm; 8.3, 16.6 and 34 μM; A280 and FI optics; c(s) model (Table 2) and g(s*) model; n assumes one copy of dT38:dA38.

As a reminder, the stoichiometry N is the number of molecules, sites or subunits per partner or assembly. For “Redβ single strand annealing protein from bacteriophage λ (from UniProt P03698 1-261) (natural protein)”, the stoichiometry N in experiment [1] (8.3 μM, A280 optics) came to 12.5 subunits; in experiment [1] (8.3 μM, FI optics), 12.4 subunits; in experiment [1] (16.6 μM, A280 optics) it was 12 subunits; in experiment [1] (16.6 μM, FI optics), 14.2 subunits; in experiment [1] (34 μM, A280 optics) it was 13.1 subunits; in experiment [1] (34 μM, FI optics), 15.5 subunits. For the same substance, the stoichiometry N in experiment [2] (8.3 μM, A280 optics) turned out to be 11.5 subunits; in experiment [2] (8.3 μM, FI optics), 12.9 subunits; in experiment [2] (16.6 μM, A280 optics), 12.3 subunits; in experiment [2] (16.6 μM, FI optics), 14.1 subunits; in experiment [2] (34 μM, A280 optics) it was 12.1 subunits; in experiment [2] (34 μM, FI optics) it was 14.9 subunits.
